Consider 15 compounds from PubChem BioAssay AID2202238 (Ras Initiative Chemistry Research Team, Frederick National …, 2025).

The list shows a part of the results. The main result of the screen is listed elsewhere. These columns were measured beside it and carry no call.

The target of the assay is GTPase KRas (Homo sapiens) (UniProt P01116). In words: Covalent labelling of cysteine mutants by fragments, read by mass spectrometry (AID 2202238). Conditions: KRAS G12D cysteine mutants, disulfide tethering, MALDI-TOF labeling, stronger effect = higher value, fragment at 500 µM. Set-up: protein at 5 µM with 500 µM competing thiol for 1.5 h.
UniProt P01116, sequence (P01116 whole entry, looked up, the tested form may be a part): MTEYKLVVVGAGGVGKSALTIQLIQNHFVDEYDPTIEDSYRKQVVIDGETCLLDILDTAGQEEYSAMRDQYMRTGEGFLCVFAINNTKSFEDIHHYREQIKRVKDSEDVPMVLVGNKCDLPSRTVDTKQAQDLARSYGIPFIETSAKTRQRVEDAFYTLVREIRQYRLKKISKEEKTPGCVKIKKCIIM
The mark [1] stands for this setting: measured here: G60C mutant labeling.
[2] abbreviates: measured here: G75C mutant labeling.
Setting [3] is: measured here: H94C mutant labeling.
The mark [4] stands for this setting: measured here: I36C mutant labeling.
Where [5] appears, read: measured here: L120C mutant labeling.
[6] abbreviates: measured here: M67C mutant labeling.
Setting [7] is: measured here: M72C mutant labeling.
Setting [8] is: measured here: N26C mutant labeling.
The mark [9] stands for this setting: measured here: N86C mutant labeling.
Where [10] appears, read: measured here: P121C mutant labeling.
Setting [11] is: measured here: S122C mutant labeling.
The mark [12] stands for this setting: measured here: S136C mutant labeling.

Turning to `Cc1cc(C(=O)NCCS)nc2[nH]c(=O)[nH]c(=O)c12`, the percent labeling reads like this: under setting [1], 34.8%; under setting [2], 14%; under setting [3], 33.1%; under setting [4], 29.6%; under setting [5], 52.3%; under setting [6], 32%. The percent labeling is, setting by setting: under setting [7], 32%; under setting [8], 47.7%; under setting [9], 29.8%; under setting [10], 36.3%; under setting [11], 35.8%; under setting [12], 53.5%.

As for `Cc1nn(CC(F)F)cc1NC(=O)CCS`, the percent labeling under setting [2] was determined as 12.8%; the percent labeling under setting [3] came out at 30.7%; the percent labeling under setting [4] was 40.7%; the percent labeling under setting [5] turned out to be 28.8%; the percent labeling under setting [6] is 29.3%; the percent labeling under setting [7] is 27.1%. Also, the percent labeling worked out at 32.5% under setting [9], 29.6% under setting [10], 36.2% under setting [11] and 48.4% under setting [12].

Regarding `Cc1ccc(-c2csc(C(=O)NCCS)c2-n2cccc2)cc1`, the percent labeling reads like this: under setting [1], 50.2%; under setting [2], 29.5%; under setting [3], 25.2%; under setting [4], 18.4%; under setting [5], 22.8%; under setting [6], 13.2%. Further, the percent labeling turned out to be 82.8% under setting [7]; 19.1% under setting [8]; 12.3% under setting [9]; 18.3% under setting [10]; 7.2% under setting [11]; 38% under setting [12].

For `CC(C)NC(=O)c1cnn2c1CC(CNC(=O)CCS)CC2` (stereo unspecified), the percent labeling turned out to be 7.4% under setting [2]; 31.8% under setting [3]; 34.1% under setting [4]; 21.8% under setting [5]; 37.4% under setting [6]; 15.3% under setting [7]. The percent labeling is, setting by setting: under setting [9], 21.6%; under setting [10], 26.1%; under setting [11], 29.4%; under setting [12], 48.8%.

For `O=C(CCS)NC(c1ccccc1)c1ccccc1`, the percent labeling by setting is: under setting [2], 11.7%; under setting [3], 20.7%; under setting [4], 22.1%; under setting [5], 18.7%; under setting [6], 17.5%; under setting [7], 28.3%. For the same compound, the percent labeling under setting [9] was determined as 13%, the percent labeling under setting [10] turned out to be 21.2%, the percent labeling under setting [11] is 17.9% and the percent labeling under setting [12] turned out to be 51.2%.

Take `O=C(NCCS)c1ccc(-c2cccc(OC(F)(F)F)c2)s1`: the percent labeling reads like this: under setting [1], 13.5%; under setting [2], 12.3%; under setting [3], 8.2%; under setting [4], 4.1%; under setting [5], 5.1%; under setting [6], 0%. Moreover, the percent labeling worked out at 34.9% under setting [7]; 11.5% under setting [8]; 6.7% under setting [9]; 4.5% under setting [10]; 2% under setting [11]; 3.6% under setting [12].

As for `O=C(NCCS)c1ccc(F)cc1Cl`, the percent labeling under setting [1] is 63.3%; the percent labeling under setting [2] was 26.5%; the percent labeling under setting [3] turned out to be 42.7%; the percent labeling under setting [4] was determined as 29.3%; the percent labeling under setting [5] worked out at 39.8%; the percent labeling under setting [6] worked out at 30.5%. Moreover, the percent labeling by setting is: under setting [7], 47.1%; under setting [8], 45%; under setting [9], 32.3%; under setting [10], 45.9%; under setting [11], 34.6%; under setting [12], 47.8%.

Turning to `O=C(NCCS)c1cccc(I)c1`, the percent labeling is 43.4% under setting [1]; 15% under setting [2]; 26.2% under setting [3]; 14% under setting [4]; 17.3% under setting [5]; 14.7% under setting [6]. Also, the percent labeling is, setting by setting: under setting [7], 35.3%; under setting [8], 32.1%; under setting [9], 15.9%; under setting [10], 14.9%; under setting [11], 11.8%; under setting [12], 21.3%.

`O=C(CCS)N1CCC(c2cc(=O)[nH]c(=O)[nH]2)C1` (stereo unspecified): the percent labeling by setting is: under setting [2], 18.5%; under setting [3], 27.2%; under setting [4], 41.3%; under setting [5], 25.4%; under setting [6], 45.8%; under setting [7], 20.2%. Also, the percent labeling runs as follows: under setting [9], 31.5%; under setting [10], 30.9%; under setting [11], 32%; under setting [12], 52.9%.

For `Cc1cnc(C(C)(C)NC(=O)CCS)s1`, the percent labeling turned out to be 12.7% under setting [2]; 36.6% under setting [3]; 37.5% under setting [4]; 27.2% under setting [5]; 31.3% under setting [6]; 20.1% under setting [7]. Besides, the percent labeling runs as follows: under setting [9], 21.7%; under setting [10], 38.4%; under setting [11], 31.6%; under setting [12], 54.7%.

As for `O=C(NCCS)C1CC(OCc2ccccc2)C1` (stereo unspecified), the percent labeling came out at 32.5% under setting [1]; 14.6% under setting [2]; 31.8% under setting [3]; 29% under setting [4]; 36.7% under setting [5]; 37.2% under setting [6]. For the same compound, the percent labeling runs as follows: under setting [7], 33.1%; under setting [8], 41.8%; under setting [9], 20.8%; under setting [10], 31.2%; under setting [11], 27.4%; under setting [12], 57.1%.

Consider `Cn1[nH]c(=O)c2c(C(=O)NCCS)cc(C3CC3)nc21`, for which the percent labeling reads like this: under setting [1], 55.5%; under setting [2], 20.2%; under setting [3], 29.4%; under setting [4], 18.5%; under setting [5], 55.1%; under setting [6], 26.8%. Further, the percent labeling reads like this: under setting [7], 37.6%; under setting [8], 37.7%; under setting [9], 32.6%; under setting [10], 33.4%; under setting [11], 37.9%; under setting [12], 64.4%.

As for `O=C(CCS)Nc1cc(Cl)c2c(c1)OCCO2`, the percent labeling was determined as 21.4% under setting [2]; 25.1% under setting [3]; 19.3% under setting [4]; 25.8% under setting [5]; 20.6% under setting [6]; 56.6% under setting [7]. For the same compound, the percent labeling is, setting by setting: under setting [9], 12.9%; under setting [10], 15.9%; under setting [11], 19.9%; under setting [12], 34.6%.

`O=C(NCCS)C(=O)c1c[nH]c2ccccc12`: the percent labeling is, setting by setting: under setting [1], 27.6%; under setting [2], 25.2%; under setting [3], 12.5%; under setting [4], 16.7%; under setting [5], 10.5%; under setting [6], 13.7%. The percent labeling reads like this: under setting [7], 54.1%; under setting [8], 32.7%; under setting [9], 13.5%; under setting [10], 44.8%; under setting [11], 11.3%; under setting [12], 26.4%.

Take `O=C(CCS)NCC1c2ccccc2C(=O)N1Cc1ccccc1` (stereo unspecified): the percent labeling under setting [2] was found to be 10%; the percent labeling under setting [3] stood at 37.2%; the percent labeling under setting [4] was determined as 31.3%; the percent labeling under setting [5] came out at 19.3%; the percent labeling under setting [6] came to 28.9%; the percent labeling under setting [7] was 24.3%. For the same compound, the percent labeling is, setting by setting: under setting [9], 20.5%; under setting [10], 21.8%; under setting [11], 25.9%; under setting [12], 45.8%.
